The campaign covered roughly 350,000 compounds. About 260 (0.074%) were called active. This list was built around the results that the source calls inconclusive (neither active nor inactive); the mix of calls is not that of the screen. Calls come from the whole dose curve; as a rule, active = well fitted inhibition curve with a large enough effect; inconclusive = small, poorly fitted or top-dose-only effect; inactive = no such curve, though single readings can be large or run the other way. Potencies of inconclusive entries are doubtful fits and often do not repeat.
The compounds below were run against Ferritin light chain (Equus caballus) (UniProt P02791) (assay: qHTS Assay for Identification of Novel General Anesthetics). Conditions: apoferritin/1-aminoanthracene competitive binding, fluorescence; activity change, negative = displacement: at 77.5 µM (top of the series).
Sequence of UniProt P02791 (P02791 whole entry, looked up): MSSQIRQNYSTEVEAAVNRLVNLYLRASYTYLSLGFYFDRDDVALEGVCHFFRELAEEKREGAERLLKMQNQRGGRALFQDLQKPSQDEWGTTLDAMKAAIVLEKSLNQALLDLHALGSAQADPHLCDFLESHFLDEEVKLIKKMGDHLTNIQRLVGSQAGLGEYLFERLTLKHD
Method in brief: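 Horse-spleen apoferritin (10 uM) was mixed with 50% saturated 1-aminoanthracene in PBS, exposed to compounds for 10 min at room temperature, and read for fluorescence (ex 380 nm, em 535 nm). Competitive displacement was fitted with a four-parameter Hill equation.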
In the case of Cc1ccc(C)c(Cn2c(=O)n(-c3ccccc3)c(=O)c3c4c(sc32)CCCC4)c1, the “activity change, negative = displacement” value was inactive: 3.34%.
For Cc1ccc(/C=N\NC(=O)CC(=O)NCCc2ccccc2)cc1, the Potency was inconclusive: 15.8 µM [inhibitor, partial curve, poor fit].
With CCc1ccc(C2=NN(CCC(=O)NC3CCCCCC3)C(=O)CC2)cc1 the Potency was inconclusive: 28.2 µM [inhibitor, partial curve].
In the case of O=C(CSc1nnc(-c2ccccc2)o1)c1ccc2c(c1)OCCO2, the “activity change, negative = displacement” value was inactive: -10.7%.
Cc1ccccc1C1NC(=O)Cc2ccccc21 (configuration not stated) was tested, and the Potency was inconclusive: 50.1 µM [inhibitor, single point].
In the case of Fc1ccccc1CSc1nnc(-c2cccnc2)o1, the Potency was inconclusive: 22.4 µM [inhibitor, partial curve].
With COc1cccc(C2CC(c3ccccc3)=NN2S(=O)(=O)c2ccc(C)cc2)c1OC (configuration not stated) the “activity change, negative = displacement” value was inactive: -8.21%.
With CC(C)(C)c1ccc(NC(=O)c2c(F)cccc2Cl)cc1 the Potency was inconclusive: 50.1 µM [inhibitor, single point].
Cc1ccc(N2C(=O)C3C4C=CC(CC4)C3C2=O)cc1[N+](=O)[O-] (configuration not stated) was tested, and the Potency was inconclusive: 31.6 µM [inhibitor, partial curve].
For COc1ccccc1-c1nnc(NC(C)=O)s1, the “activity change, negative = displacement” value was inactive: -1.33%.
With O=S(=O)(c1ccccc1)N(C1=NCCS1)S(=O)(=O)c1ccccc1 the Potency was inconclusive: 35.5 µM [inhibitor, partial curve].
In the case of COc1ccc(NC(=O)Cn2nnc(C(=O)NCc3cccs3)c2N)cc1OC, the Potency was inconclusive: 39.8 µM [inhibitor, single point].
Clc1ccccc1OCc1nnc(-c2ccccc2Br)o1 was tested, and the Potency was inconclusive: 25.1 µM [inhibitor, partial curve].
With CCc1c(C)sc2c1CCN(Cc1ccc(C#N)cc1)C2c1ccccc1 (configuration not stated) the Potency was inconclusive: 15.8 µM [inhibitor, partial curve].
In the case of Nc1nsc2ccccc12, the “activity change, negative = displacement” value was inactive: -1.37%.
CC(C)Cn1c(N)c(C(=O)COC(=O)c2cc(C(F)(F)F)nc3c(C(F)(F)F)cccc23)c(=O)n(C)c1=O was tested, and the Potency was inconclusive: 14.1 µM [inhibitor, partial curve].
In the case of c1ccn2cc(C34CC5CC(CC(C5)C3)C4)nc2c1, the Potency was inconclusive: 25.1 µM [inhibitor, partial curve].
For COc1cc(OC)c(NC(=O)Cn2ncn3c(cc4cc(C)ccc43)c2=O)cc1Cl, the Potency was inconclusive: 1 µM [inhibitor, full curve].
Oc1ccccc1-c1cc(-c2ccccc2Cl)[nH]n1 was tested, and the Potency was inconclusive: 31.6 µM [inhibitor, partial curve].
With CN1/C(=C/c2cccc[n+]2C)Sc2ccccc21 the “activity change, negative = displacement” value was inactive: -5.22%.
With Nc1ccccc1C(=O)NC12CC3CC(CC(C3)C1)C2 the Potency was inconclusive: 20 µM [inhibitor, partial curve].
With COC(=O)c1cc(C(=O)c2ccc(Cl)cc2Cl)cn1C the Potency was inconclusive: 31.6 µM [inhibitor, partial curve].
C/C(=N\NC(=O)c1ccc(N2CCCC2=O)cc1)c1ccccc1 was tested, and the “activity change, negative = displacement” value was inactive: -8.75%.
In the case of Cc1nc2nc(SCC(=O)NCc3ccco3)nn2c(C)c1Cc1c(F)cccc1Cl, the Potency was inconclusive: 28.2 µM [inhibitor, partial curve].
For COc1ccc(Cn2c(CO)cnc2SCc2ccc(C)cc2)cc1, the Potency was inconclusive: 28.2 µM [inhibitor, partial curve].
With CCC(=O)N1CCc2cc(CNS(=O)(=O)c3ccc(CC(C)C)cc3)ccc21 the Potency was inconclusive: 44.7 µM [inhibitor, partial curve].
CC1(C)C(=O)C2(CCCCC2)C(=O)OC1c1ccc(O)cc1 (configuration not stated) was tested, and the Potency was inconclusive: 31.6 µM [inhibitor, single point].
With COc1ccc(S(=O)(=O)NCCCC(=O)Nc2ccc(Sc3ccc(N)cc3)cc2)cc1 the “activity change, negative = displacement” value was inactive: 4.75%.
In the case of CC(C)CCNC(=O)C1CCN(C(=O)c2cc3sccc3n2Cc2ccc(Cl)cc2)CC1, the “activity change, negative = displacement” value was inactive: 73.5%.
For Cc1cc(C(=O)Nc2cccc(NC(=O)c3ccco3)c2)ccc1[N+](=O)[O-], the Potency was inconclusive: 12.6 µM [inhibitor, partial curve].
In the case of CCOC(=O)c1ccc(-c2ccc3[nH]c4ccccc4c(=O)c3c2)cc1F, the “activity change, negative = displacement” value was inactive: -2.67%.
COc1cc(CN(C(=O)c2ccccc2F)C2CCS(=O)(=O)C2)cc(OC)c1OC (configuration not stated) was tested, and the “activity change, negative = displacement” value was inactive: -0.751%.
With COc1ccc(C(=O)NCC(=O)OCC(=O)NCCC2=CCCCC2)cc1 the Potency was inconclusive: 22.4 µM [inhibitor, partial curve].
For CC(C)CN(C(=O)COC(=O)c1c2c(nc3ccccc13)CCC2)c1c(N)n(Cc2ccccc2)c(=O)[nH]c1=O, the Potency was inconclusive: 11.2 µM [inhibitor, partial curve].
For CN(C1CCCCC1)S(=O)(=O)c1ccc(NC(=O)c2ccco2)cc1, the Potency was inconclusive: 50.1 µM [inhibitor, single point].
O=C(NCCCCc1ccccc1)C1CC(c2ccc([N+](=O)[O-])cc2)=NO1 (configuration not stated) was tested, and the Potency was inconclusive: 28.2 µM [inhibitor, partial curve].
For CCN(CC)S(=O)(=O)c1ccc2[nH]cc(C(=O)NCCC3=CCCCC3)c(=O)c2c1, the Potency was inconclusive: 3.98 µM [inhibitor, full curve].
N#Cc1cc(C(=O)c2cc(Br)ccc2O)cn(C2CCCCC2)c1=O was tested, and the Potency was inconclusive: 31.6 µM [inhibitor, single point].
With Cc1ccc(S(=O)(=O)N2CCCOC2)cc1 the Potency was inconclusive: 39.8 µM [inhibitor, partial curve].
For O=C1C2C3C=CC(CC3)C2C(=O)N1c1ccc2c(c1)OCO2 (configuration not stated), the Potency was inconclusive: 50.1 µM [inhibitor, single point].
CC1(C)N=C(SCC(=O)Nc2ccc(Cl)cc2Cl)C(c2ccccc2)=N1 was tested, and the Potency was inconclusive: 35.5 µM [inhibitor, partial curve].
CN(C)CCNCc1ccc(OC2CCCC2)cc1 was tested, and the Potency was inconclusive: 15.8 µM [inhibitor, partial curve].
O=C(O)CSc1ncnc2sc(-c3ccccc3)cc12 was tested, and the “activity change, negative = displacement” value was inactive: -8.45%.
O=C(c1ccccc1)N1CCSc2sccc2C1=O was tested, and the Potency was inconclusive: 50.1 µM [inhibitor, single point].
With CCC(=O)Oc1ccc(C(=O)Nc2ccc3c(c2)C(=O)N(C2CCCCC2)C3=O)cc1 the Potency was inconclusive: 11.2 µM [inhibitor, full curve, poor fit].
CSc1ccc(CCNC(=O)CCCn2c(=O)c3cccn3c3ccccc32)cc1 was tested, and the Potency was inconclusive: 22.4 µM [inhibitor, partial curve].
For O=Cc1ccc(N2CCCC2)o1, the Potency was inconclusive: 35.5 µM [inhibitor, single point].
With COc1cc(S(=O)(=O)NC2CCCCC2C)ccc1Cl (configuration not stated) the Potency was inconclusive: 35.5 µM [inhibitor, single point].
For O=C1c2[nH]nc(-c3ccc(F)cc3)c2C(c2ccccc2F)N1c1ccccc1 (configuration not stated), the Potency was inconclusive: 10 µM [inhibitor, full curve].
With COC(=O)c1ccc(/C=C/C(=O)c2ccc(OC)c(OC)c2)cc1 the Potency was inconclusive: 31.6 µM [inhibitor, partial curve].
With CC(=O)NC1=C(C#N)C(c2ccccc2)c2c(ccc3ccccc23)O1 (configuration not stated) the Potency was inconclusive: 17.8 µM [inhibitor, partial curve].
CCOc1ccc(NC(=S)NC(=O)/C=C/c2ccco2)cc1 was tested, and the Potency was inconclusive: 50.1 µM [inhibitor, single point].
With Cc1ccc(NCC(=O)N/N=C/c2cc(O)ccc2[N+](=O)[O-])cc1 the Potency was inconclusive: 39.8 µM [inhibitor, partial curve].
In the case of N#C/C(=N\Nc1ccc(S(=O)(=O)N2CCCCCC2)cc1)C(N)=S, the Potency was inconclusive: 35.5 µM [inhibitor, partial curve].
With CCCCc1ccc(NC(=S)NCc2cccc(OC)c2)cc1 the Potency was inconclusive: 6.31 µM [inhibitor, single point].
In the case of COC(=O)C(C)N1C(=O)S/C(=C\c2cc(C)n(-c3ccccn3)c2C)C1=O (configuration not stated), the Potency was inconclusive: 14.1 µM [inhibitor, partial curve, poor fit].
CC(C)c1ccccc1-n1c(SCC(=O)N2CCN(c3ccccc3)CC2)nnc1-c1cccnc1 was tested, and the Potency was inconclusive: 28.2 µM [inhibitor, partial curve].
With CC(C)(C)N(Cc1ccccc1)C(=O)c1ccc(Cl)cc1[N+](=O)[O-] the Potency was inconclusive: 31.6 µM [inhibitor, partial curve].
For CN1CCN(CCNC(=O)c2cnn(-c3ccc(Cl)cc3)c2C2CCN(C(=O)OC(C)(C)C)CC2)CC1, the “activity change, negative = displacement” value was inactive: -3.3%.
With O=c1c2c3c(sc2ncn1/N=C/c1cccnc1)CCCC3 the Potency was inconclusive: 28.2 µM [inhibitor, partial curve].
For Cc1cccc(C)c1NC(=O)CSc1nnc(-c2ccco2)c(-c2ccco2)n1, the Potency was inconclusive: 31.6 µM [inhibitor, partial curve].
O=C(Nc1nc2ccccc2s1)c1cc(-c2ccco2)nc2ccccc12 was tested, and the “activity change, negative = displacement” value was inactive: 53.1%.
Cc1oc2cc3oc(=O)c(CCC(=O)NC4CC4)c(C)c3cc2c1C was tested, and the “activity change, negative = displacement” value was inactive: -6.28%.
For O=C(c1ccc(N2CCN(C(=O)c3cccc(F)c3)CC2)cc1)c1cccc(F)c1, the Potency was inconclusive: 28.2 µM [inhibitor, partial curve].
In the case of CC(=Nc1ccc(C)cc1C)c1sc2ccccc2c1O, the Potency was inconclusive: 35.5 µM [inhibitor, partial curve].
For COc1ccc(/C=N/NC(=O)CC(=O)NCc2cccnc2)cc1[N+](=O)[O-], the Potency was inconclusive: 28.2 µM [inhibitor, partial curve].
For COC(=O)CCC/C=C1/SCC(NC(=O)c2ccccc2)/C1=N/O (configuration not stated), the Potency was inconclusive: 31.6 µM [inhibitor, partial curve].

Source: PubChem BioAssay AID485281 (National Center for Advancing Translational Sciences (NCATS), 2010)
% is set by controls: 0 for no effect and ±100 for the full control effect; potency is the fitted concentration of half-maximal effect; tags give direction and shape of the fitted curve.
Note: nearly all actives have a fitted effect of over 20% in size.
